Data on four molecules can be found in PMC6090299.

Sequences of proteins named here, by UniProt entry; tags and fusion partners are left off. A change or cut given only in a name is not applied to a line headed by its entry. A line that says so, or that is headed by a name, gives the form on record, which may keep a tag or linker. Residues count along the entry.
Nectin-2-Fc (human (by the printed RefSeq entry)) (Q92692, form named): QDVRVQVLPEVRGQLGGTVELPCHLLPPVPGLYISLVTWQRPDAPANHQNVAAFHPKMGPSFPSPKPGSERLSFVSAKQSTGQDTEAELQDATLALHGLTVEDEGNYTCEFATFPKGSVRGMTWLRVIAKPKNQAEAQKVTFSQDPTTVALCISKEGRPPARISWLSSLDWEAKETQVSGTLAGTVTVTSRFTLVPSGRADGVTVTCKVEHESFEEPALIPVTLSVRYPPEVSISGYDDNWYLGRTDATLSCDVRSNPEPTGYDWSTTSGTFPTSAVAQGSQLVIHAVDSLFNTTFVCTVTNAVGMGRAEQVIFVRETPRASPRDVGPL
UniProt Q9NQS3, residues 58-404: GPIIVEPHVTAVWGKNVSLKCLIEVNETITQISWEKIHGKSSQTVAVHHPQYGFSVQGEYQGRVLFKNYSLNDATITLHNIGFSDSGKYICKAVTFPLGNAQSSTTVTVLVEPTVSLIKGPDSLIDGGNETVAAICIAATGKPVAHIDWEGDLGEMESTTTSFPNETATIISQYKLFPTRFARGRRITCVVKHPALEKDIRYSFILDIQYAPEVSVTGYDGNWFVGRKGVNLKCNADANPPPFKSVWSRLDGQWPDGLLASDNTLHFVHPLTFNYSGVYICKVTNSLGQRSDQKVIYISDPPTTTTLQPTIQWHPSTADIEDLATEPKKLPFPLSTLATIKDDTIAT
UniProt Q96NY8, residues 32-349: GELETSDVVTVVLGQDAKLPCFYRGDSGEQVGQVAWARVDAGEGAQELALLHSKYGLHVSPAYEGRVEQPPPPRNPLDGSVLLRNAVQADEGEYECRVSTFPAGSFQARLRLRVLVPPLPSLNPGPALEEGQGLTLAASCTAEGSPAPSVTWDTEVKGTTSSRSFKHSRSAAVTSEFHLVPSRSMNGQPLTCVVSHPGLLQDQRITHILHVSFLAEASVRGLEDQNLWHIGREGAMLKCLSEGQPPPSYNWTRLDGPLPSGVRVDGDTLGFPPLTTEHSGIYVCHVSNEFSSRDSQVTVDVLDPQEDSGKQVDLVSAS

These are yes or no findings as the source states them, for the method shown. For some assays here: Binding seen in cells or lysates may run through a third protein. Some binding calls cover weakened binding; strength is not graded here. Where a sequence is shown, tags or fusion partners need not be part of it.

Experiment [1] has as its target T1, CADM3-Fc (human (by the printed RefSeq entry)) (UniProt Q8N126).
T1 sequence: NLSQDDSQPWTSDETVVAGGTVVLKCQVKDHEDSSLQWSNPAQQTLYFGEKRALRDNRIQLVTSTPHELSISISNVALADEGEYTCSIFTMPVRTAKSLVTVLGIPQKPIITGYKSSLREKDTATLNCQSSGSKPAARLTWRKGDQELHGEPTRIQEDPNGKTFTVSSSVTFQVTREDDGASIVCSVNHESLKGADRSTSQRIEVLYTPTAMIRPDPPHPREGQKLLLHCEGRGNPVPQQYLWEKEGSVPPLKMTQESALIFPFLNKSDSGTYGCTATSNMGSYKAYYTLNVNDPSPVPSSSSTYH
Nature of the experiment: SPR; SPR imaging (OpenPlex); the 10 IgSF-Fc proteins spotted and immobilised by amine coupling; CADM2-Fc, CADM3-Fc or CADM4-Fc injected as analyte; 25°C; PBS with 0.2% BSA and 0.02% Tween20, 50 μL/min; both purified.

Experiment [2] has as its target T2, CADM2-Fc (human (by the printed RefSeq entry)) (UniProt Q8N3J6).
T2 sequence: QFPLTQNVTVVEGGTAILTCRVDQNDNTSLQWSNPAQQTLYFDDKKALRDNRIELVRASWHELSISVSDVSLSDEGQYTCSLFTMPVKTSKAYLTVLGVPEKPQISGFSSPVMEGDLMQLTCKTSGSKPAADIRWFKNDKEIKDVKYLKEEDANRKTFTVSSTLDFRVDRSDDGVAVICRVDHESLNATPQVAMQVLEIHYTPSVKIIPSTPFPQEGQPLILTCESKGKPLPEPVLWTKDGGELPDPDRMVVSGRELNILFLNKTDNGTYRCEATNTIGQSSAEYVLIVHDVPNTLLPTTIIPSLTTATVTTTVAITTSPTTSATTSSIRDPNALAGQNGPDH
The description is as above.

The target of experiment [3] is T3, CADM1-Fc (human (by the printed RefSeq entry)) (UniProt Q9BY67).
T3 sequence: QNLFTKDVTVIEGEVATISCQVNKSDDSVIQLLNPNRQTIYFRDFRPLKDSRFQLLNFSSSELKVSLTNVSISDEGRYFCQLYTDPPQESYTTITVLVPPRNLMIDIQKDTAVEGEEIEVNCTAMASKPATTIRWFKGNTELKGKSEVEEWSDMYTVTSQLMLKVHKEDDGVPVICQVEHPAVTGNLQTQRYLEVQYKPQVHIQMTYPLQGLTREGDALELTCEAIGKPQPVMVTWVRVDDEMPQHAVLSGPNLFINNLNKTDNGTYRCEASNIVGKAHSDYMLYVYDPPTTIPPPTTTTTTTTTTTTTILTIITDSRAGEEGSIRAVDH
The experiment is described as above.

Experiment [4] has as its target Nectin-2-Fc (human (by the printed RefSeq entry)) (UniProt Q92692). Briefly: SPR; SPR imaging (OpenPlex); the 10 IgSF-Fc proteins (7-24 μM) spotted in hexaplicate and immobilised by amine coupling; 2.4 μM CADM1-Fc injected for 4 min; 25°C; PBS with 0.2% BSA and 0.02% Tween20, 50 μL/min; signal of normal human IgG subtracted; both purified. For orientation: In SPR one partner is held on a chip, and binding of the other changes the refractive index at the surface.

The target of experiment [5] is Nectin-3-Fc (human (by the printed RefSeq entry)) (UniProt Q9NQS3). Described as above.
Experiment [6] concerns the target Nectin-4-Fc (human (by the printed RefSeq entry)) (UniProt Q96NY8). Described as above.
Experiment [7] deals with T4, Nectin-1-Fc (human (by the printed RefSeq entry)) (UniProt Q15223).
T4 sequence: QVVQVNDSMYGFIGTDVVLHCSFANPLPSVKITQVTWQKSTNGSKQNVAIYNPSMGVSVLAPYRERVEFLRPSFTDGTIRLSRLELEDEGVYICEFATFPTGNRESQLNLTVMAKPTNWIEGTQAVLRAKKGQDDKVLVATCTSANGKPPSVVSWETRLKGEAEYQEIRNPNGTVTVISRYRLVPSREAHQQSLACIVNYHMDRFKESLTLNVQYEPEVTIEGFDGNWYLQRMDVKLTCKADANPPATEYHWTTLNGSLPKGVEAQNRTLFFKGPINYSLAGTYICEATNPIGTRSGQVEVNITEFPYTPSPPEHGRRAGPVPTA
Described as above.

In experiment [8] the target is Nectin-3-Fc (human (by the printed RefSeq entry)) (UniProt Q9NQS3). Nature of the experiment: SPR; SPR imaging (OpenPlex); the 10 IgSF-Fc proteins spotted and immobilised by amine coupling; CADM2-Fc, CADM3-Fc or CADM4-Fc injected as analyte; 25°C; PBS with 0.2% BSA and 0.02% Tween20, 50 μL/min; both purified.
The target of experiment [9] is T4, Nectin-1-Fc (human (by the printed RefSeq entry)). Described as above.
For another experiment, the target named is T5, CADM4-FLAG (UniProt Q8NFZ8).
T5 sequence: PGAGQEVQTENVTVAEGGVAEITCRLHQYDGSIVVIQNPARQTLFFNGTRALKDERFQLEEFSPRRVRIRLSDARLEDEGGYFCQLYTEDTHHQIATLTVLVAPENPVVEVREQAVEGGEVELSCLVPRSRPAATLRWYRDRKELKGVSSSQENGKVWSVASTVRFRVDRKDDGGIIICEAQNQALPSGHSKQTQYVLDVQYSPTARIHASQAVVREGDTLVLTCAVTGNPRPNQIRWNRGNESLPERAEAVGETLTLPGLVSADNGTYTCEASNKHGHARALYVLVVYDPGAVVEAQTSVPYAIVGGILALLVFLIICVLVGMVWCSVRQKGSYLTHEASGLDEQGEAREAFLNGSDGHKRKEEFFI
Briefly: co-IP; 293FT cells transfected with CADM4-FLAG co-cultured 1:1 for 2 days with cells transfected with CADM1-GFP; cross-linked with 1 mM DTSSP; lysed in TNE buffer (1% Triton-X100); anti-FLAG M2 Affinity Gel, elution with 3 × FLAG peptide, Western blotting.

B1: CADM2-Fc (Fc fusion, UniProt Q8N3J6-1 25-367)
chain: T2 sequence
As to B1, the binding entry in experiment [1], in experiment [2] and in [3] was “binds” in each case.

B2: CADM1-Fc (Fc fusion, UniProt Q9BY67-1 45-374)
chain: T3 sequence
With B2, the binding entry in experiment [4], in experiment [5], in experiment [6] and in experiment [7] was “no binding (tested: 2.4 μM CADM1-Fc)” throughout.

B3: CADM3-Fc (Fc fusion, UniProt Q8N126-1 25-330)
chain: T1 sequence
Take B3: the binding result in [8] is recorded as “no binding”; in experiment [2], “binds”; in experiment [9], “no binding”.

B4: CADM1-GFP (protein, UniProt Q9BY67 45-442)
chain: QNLFTKDVTVIEGEVATISCQVNKSDDSVIQLLNPNRQTIYFRDFRPLKDSRFQLLNFSSSELKVSLTNVSISDEGRYFCQLYTDPPQESYTTITVLVPPRNLMIDIQKDTAVEGEEIEVNCTAMASKPATTIRWFKGNTELKGKSEVEEWSDMYTVTSQLMLKVHKEDDGVPVICQVEHPAVTGNLQTQRYLEVQYKPQVHIQMTYPLQGLTREGDALELTCEAIGKPQPVMVTWVRVDDEMPQHAVLSGPNLFINNLNKTDNGTYRCEASNIVGKAHSDYMLYVYDPPTTIPPPTTTTTTTTTTTTTILTIITDSRAGEEGSIRAVDHAVIGGVVAVVVFAMLCLLIILGRYFARHKGTYFTHEAKGADDAADADTAIINAEGGQNNSEEKKEYFI
With B4, in the experiment with CADM4-FLAG, the binding entry is given as “binds”.
